The structures appear in SMILES notation. Among all 46,000 compounds or so, about 60 (0.1%) were called active. About 3% were inconclusive and are not listed. Calls follow the shape of the dose curve; as a rule, active = well fitted inhibition curve with a large enough effect; inconclusive = small, poorly fitted or top-dose-only effect; inactive = no such curve, though single readings can be large or run the other way. The list shows a part of the results.

Results on 47 molecules are retold here after PubChem BioAssay AID1963576 (National Center for Advancing Translational Sciences (NCATS), 2024).

A short description of this assay: Primary qHTS assay for Inhibitors of ovarian cancer metastasis using an organotypic tumor microenvironment (TME) model. Also: nearly all actives have a fitted effect of over 65% in size.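 As to activity change, negative = inhibition: plate controls were DMSO wells for no effect and tomatine positive control wells for full effect.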 Conditions: SKOV3ip1-GFP adhesion/invasion on 3D omental model, fluorescence; series mostly up to 45.8 µM; activity change, negative = inhibition: at the top concentration. In outline:
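Primary human omental fibroblast/mesothelial 3D culture pre-formed 48 h. SKOV3ip1-GFP cells added with compounds (0.36-46 umol/L), incubated 2 h RT/16 h 37 C, fixed; GFP cells quantified at 488/509 nm.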
For the molecule `CC(=O)c1cccc(NC(=O)c2oc(=O)c3ccccc3c2-c2ccccc2)c1`, the “activity change, negative = inhibition” value was inactive: -5.29%.
For the molecule `CC(C)CN(CCNC(=O)c1cn(C)c2ccc(S(=O)(=O)N3CCOCC3)cc2c1=O)CC(C)C`, the “activity change, negative = inhibition” value is inactive: -5.77%.
Consider `COc1ccc(N2CCN(C(=O)CCC(=O)NNc3nc4ccccc4c4nc(C)nn34)CC2)cc1`, for which the “activity change, negative = inhibition” value is inactive: 1.5%.
Turning to `Cc1ccc(C)c(N2CCN(C(=O)c3ccc(Nc4nc5ccccc5n5nnnc45)cc3)CC2)c1`, the “activity change, negative = inhibition” value was inactive: 12.7%.
In the case of `COc1ccc2c(c1)c1c(c(=O)n(Cc3ccccc3)c(=O)n1CC(=O)NCc1ccc(C)cc1)n2C`, the result was inactive.
Same read-out and setting: under `Cc1cc(C)cc(NC(=O)c2oc3ccc4c(c3c2C)C(=O)CC(C)(C)O4)c1` stands “inactive”.
Take `CCC(=O)N1CCc2cc(S(=O)(=O)CCC(=O)N3CCN(c4cccc(Cl)c4)CC3)ccc21`: the “activity change, negative = inhibition” value was inactive: -13.6%.
For the molecule `CSc1ccc(C(=O)Nc2ccc(-c3nc4ccccc4s3)c(O)c2)cc1`, the “activity change, negative = inhibition” value was inactive: -17.9%.
As to `O=C(NCc1ccc(F)cc1)C1CCCCN1S(=O)(=O)c1ccc(F)cc1` (configuration not stated), the “activity change, negative = inhibition” value is inactive: 0.469%.
The same measure, in the same setting: to `COc1cc(OC)c(NC(=O)Cn2c(=O)cc(C)c3c(C)nn(-c4ccc(C)cc4)c32)cc1Cl` belongs inactive: 0.987%; to `CSc1ccc(-c2nc3c(C)cccn3c2Nc2ccc3c(c2)OCCO3)cc1`, inactive: -3.74%; to `CCc1ccc(NC(=O)c2ccc3nc(C(C)C)oc3c2)cc1`, inactive: 2.8%.
For the molecule `CCOC(=O)c1cc(C)n(CC2CCC(C(=O)Nc3ccc(C)cc3)CC2)c1C` (configuration not stated), the “activity change, negative = inhibition” value was inactive: -7.78%.
Still for that read-out and setting: to `Cc1ccc(OCc2nnc(SCC(=O)Nc3ccccc3C(C)C)o2)cc1` belongs inactive: 7.01%.
Consider `COC(=O)Cn1ccc2cc(S(=O)(=O)N3CCCCCC3)ccc21`, for which the “activity change, negative = inhibition” value was inactive: 0.81%.
As for `CCC1CCc2nc3sc(C(=O)Nc4ccc(C)cc4C)c(N)c3cc2C1` (configuration not stated), the “activity change, negative = inhibition” value was inactive: 34.1%.
On the same count and under the same terms, to `CCNC(=O)c1ccc(CSc2nc3cccnc3n2Cc2ccc(OC)cc2)cc1` belongs inactive: 1.9%; to `CCOC(=O)N1CCC2(CC1)OC(=O)C(C)=C2C(=O)NCc1ccc(C)cc1`, inactive: -12%.
For the molecule `Cc1nn(CC(=O)N2CCC(C)CC2)c(=O)c2cc3occc3n12`, the molecule was classed as inactive.
For `Cc1cccc(-c2nc(CN3CCCC(C(=O)NCc4ccc(Cl)cc4)C3)c(C)o2)c1` (configuration not stated), the “activity change, negative = inhibition” value was inactive: 3.13%.
For `COC(=O)c1ccc(NC(=O)Cn2c(-c3nonc3N)nc3ccccc32)cc1`, the “activity change, negative = inhibition” value is inactive: 3.41%.
Same read-out and setting: under `CCc1nn(-c2ccccc2)c2nc(-c3ccc(O)cc3)c3cc(OC)c(OC)cc3c12` stands inactive: 2.14%.
For `CCCc1cnc2c(c1SCC(=O)Nc1c(C)cc(C)cc1C)c(=O)n(C)c(=O)n2C`, the “activity change, negative = inhibition” value was inactive: 10.6%.
Consider `CCN(C(=O)CN1C(=O)COc2ccc(S(=O)(=O)N3CCOCC3)cc21)c1cccc(C)c1`, for which the “activity change, negative = inhibition” value is inactive: -7.54%.
Same read-out and setting: to `O=C(NCCc1csc(-c2cccc(F)c2)n1)c1ccccc1C(F)(F)F` belongs inactive: 3.08%.
`C=CCOc1ccc(C2c3c(oc4ccc(C)cc4c3=O)C(=O)N2CCCN2CCOCC2)cc1` (configuration not stated): the “activity change, negative = inhibition” value was inactive: 32.9%.
On the same count and under the same terms, under `CCOC(=O)c1ccc(NC(=O)CSc2nc(C)c(Cc3ccccc3)c(=O)[nH]2)cc1` stands inactive: -4.22%.
In the case of `Cc1ccc(-c2ccc(=O)n(CC(=O)Nc3ccc(C(C)C)cc3)n2)cc1`, the outcome was inactive.
The same measure, in the same setting: to `COc1cccc(NC(=O)CSc2nc3c([nH]c4ccccc43)c(=O)n2-c2cccc(Cl)c2)c1` belongs “inactive”.
Take `Cc1ccc(Cn2ccn(Cc3cccc(C(F)(F)F)c3)c(=O)c2=O)cc1`: the “activity change, negative = inhibition” value was inactive: 12.5%.
On to `CCc1nn(CC(=O)Nc2ccc(C)cc2C)c(=O)c2cc3sccc3n12`, for which the “activity change, negative = inhibition” value was inactive: 3.58%.
In the case of `O=C(Nc1ccc(F)c(Cl)c1)C1Cc2ccccc2CN1S(=O)(=O)c1ccc(F)cc1` (configuration not stated), the molecule was classed as inactive.
In the case of `Cc1ccc(-n2nc(C)c3c(C)cc(=O)n(CC(=O)NC(C)C)c32)cc1`, the “activity change, negative = inhibition” value is inactive: 1.51%.
Regarding `CCN(CC)CCOC(=O)c1ccc(NC(=O)CSc2cc(=O)n(CC)c3ccccc23)cc1`, the “activity change, negative = inhibition” value was inactive: -5.64%.
Take `CCc1cccc(CC)c1N(COC)C(=O)Cn1c(C)nc2ccccc21`: the molecule was classed as inactive.
As to `COc1ccccc1NC(=O)c1c(C)cc(C)nc1SCC(=O)Nc1cccc(C)c1`, the “activity change, negative = inhibition” value was inactive: -14.6%.
Regarding `COCCNC(=O)CCn1c(=O)c2cc(OC)c(OC)cc2n(CC(=O)Nc2ccccc2OC)c1=O`, the “activity change, negative = inhibition” value is inactive: -13.4%.
The same measure, in the same setting: to `O=C(NCc1ccccc1)c1ccc(NC(=O)N2CCSc3ncccc32)cc1` belongs inactive: -3.58%.
For `COc1ccc(-n2cc(-c3ccccc3)c3c(NCc4cccc(Cl)c4)ncnc32)cc1`, the “activity change, negative = inhibition” value is inactive: 4.34%.
As for `COc1cc(OC)c(NC(=O)c2cnn(-c3cccc(Cl)c3C)c2C2CCN(C(=O)OC(C)(C)C)CC2)cc1Cl`, the “activity change, negative = inhibition” value was inactive: -20.1%.
`CCCCn1c(SCC(=O)Nc2cccc(OC)c2)nc2ccsc2c1=O`: the outcome was inactive.
For the molecule `Cc1ccc(NC(=O)c2cn(-c3ccccc3)nc2-c2ccccc2)cc1`, the “activity change, negative = inhibition” value was inactive: -5.65%.
Same read-out and setting: under `COc1ccc(Nc2ncnc3onc(-c4ccc(Cl)cc4)c23)cc1Cl` stands inactive: -21.2%.
Take `COc1ccc(NC(=O)C2CCC(CNS(=O)(=O)c3csc(C(N)=O)c3)CC2)cc1` (configuration not stated): the call was inactive.
On to `CC(C)c1ccc(Nc2c(-c3ccc(N4CCOCC4)cc3)nc3ncccn23)cc1`, for which the “activity change, negative = inhibition” value is inactive: -2.29%.
`CCOC(=O)c1c(NC(=O)COc2cccc(C)c2C)sc2c1CCCCC2`: the molecule was classed as inactive.
Regarding `COc1ccc(-c2cn3nc(N4CCC(C(=O)NCc5ccc(F)cc5)CC4)sc3n2)cc1`, the result was inactive.
